Out of some 50,000 compounds screened, about 800 (1.6%) showed an effect of 50% or more. The list shows a part of the results.
The compounds below were run against Bcl-2-like protein 10 (Homo sapiens) (UniProt Q9HD36) (assay: Phenotype converters, Bcl-B/TR3 peptide binding displacement, primary biochemical FP (AID 1240;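 further: 0% = Bcl-B with tracer peptide and DMSO and 100% = tracer peptide lacking Bcl-B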)). Settings: GST-Bcl-B / FITC-TR3 peptide fluorescence polarization; stronger effect = higher value; compound at 3.75 mg/L.
Sequence of UniProt Q9HD36 (Q9HD36 whole entry, looked up): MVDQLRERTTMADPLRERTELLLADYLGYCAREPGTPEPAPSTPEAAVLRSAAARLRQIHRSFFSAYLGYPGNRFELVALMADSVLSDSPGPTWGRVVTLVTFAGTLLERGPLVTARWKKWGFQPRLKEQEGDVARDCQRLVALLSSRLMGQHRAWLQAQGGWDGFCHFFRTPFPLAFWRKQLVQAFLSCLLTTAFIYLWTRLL

Compared with `CCC12CN3CC(CC)(CN(C1)C3c1ccccc1)C2=O` (stereo unspecified), `CC1(C)NN(c2ccccc2)C(=S)N1CN1CCOCC1` is higher in displacement: 13.5% for the first, 55.9% for the second.

Going from `COc1ccc(-c2nnc(-c3ccc(Cl)cc3)o2)cc1OC` to `Fc1ccc(-c2nnc(-c3ccc(Cl)cc3)o2)cc1`, the displacement falls from 30.9% to 5.8%.

Going from `COc1cc([N+](=O)[O-])ccc1-c1ccc(/C=C2\C(=O)NC(=S)N(c3ccc(Cl)cc3)C2=O)o1` to `COC(=O)COc1ccc(/C=C2\C(=O)NC(=O)N(c3ccc(Cl)cc3)C2=O)cc1OC`, the displacement falls from 16.2% to -14.2%.

Going from `O=C1CC(NCc2ccc3c(c2)OCO3)C(=O)N1c1ccc(Cl)cc1` (stereo unspecified) to `Cc1onc(-c2ccccc2Cl)c1C(=O)N1CCN(Cc2ccc3c(c2)OCO3)CC1`, the displacement falls from 5.2% to -3.3%.

First: O=C(O)c1cccc(-c2ccc(/C=C/c3cc(C(F)(F)F)[nH]c(=O)n3)o2)c1
Second: Cc1ccc(OCC(=O)Nc2cccc(C(F)(F)F)c2)c(C)c1
The displacement of the first is lower: -10% for the first, 7.3% for the second.

Compared with `O=S(=O)(c1ccc(Br)cc1Br)N1CCOCC1`, `COc1ccc(/C=C/C(=O)O)cc1S(=O)(=O)N1CCCCCC1` is higher in displacement: -10.4% for the first, 2.4% for the second.

First: O=C(O)CCC(=O)N1N=C(c2c(-c3ccccc3)c3cc(Cl)ccc3[nH]c2=O)CC1c1cccc([N+](=O)[O-])c1 (stereo unspecified)
Second: O=[N+]([O-])c1cccc(-c2n[nH]c(-c3ccccc3)c2-c2nc3ccccc3[nH]2)c1
The displacement of the first is higher: 10.3% for the first, 5.1% for the second.

Going from `O=c1[nH]c(=S)[nH]c(O)c1C=Nc1ccc(Cl)c(Cl)c1` to `CC1=NN(c2nc(-c3ccc(Cl)c(Cl)c3)cs2)C(=O)C1`, the displacement rises from -7% to 11.4%.

First: COc1cc(N)c(Cl)cc1NC(=O)c1ccc(Cl)cc1
Second: Cc1ccc(NC(=O)c2ccc(Cl)cc2)cc1Cl
The displacement of the first is lower: -6.6% for the first, -0.2% for the second.

Compared with `O=C(CN(c1cccc(Br)c1)S(=O)(=O)c1ccccc1)Nc1cccc2ccccc12`, `O=C(CN(CCc1ccccc1)S(=O)(=O)c1ccc(Br)cc1)NCc1ccccn1` is higher in displacement: 4% for the first, 8.5% for the second.

Compared with `CCCNC(=O)c1ccccc1C(=O)NCCC`, `CCOC(=O)c1ccc(NC(=O)C(=O)NCCCOC)cc1` is lower in displacement: 15.4% for the first, -5.9% for the second.

Going from `O=C(O)CCCNC(=O)/C(=C\c1ccc(Cl)cc1)NC(=O)c1ccccc1` to `C/C(=N\NC(=O)CNC(=O)COc1ccccc1)c1ccccc1`, the displacement rises from -7.8% to 6.3%.

Going from `CCOC(=O)N1CCN(C(=O)c2ccc(N(Cc3ccc(Cl)cc3)S(C)(=O)=O)cc2)CC1` to `O=C(c1ccc([N+](=O)[O-])cc1)N1CCN(C(=O)c2ccccc2F)CC1`, the displacement rises from -10% to 12.3%.

Compared with `CCOC(=O)C1=NNC2C(=O)N(c3cc(OC)ccc3OC)C(=O)C12` (stereo unspecified), `CCOC(=O)c1ccc(NC(=O)CN(c2ccc(OC)cc2OC)S(C)(=O)=O)cc1` is higher in displacement: 3.1% for the first, 4.9% for the second.

Compared with `O=C(N/N=C\c1ccc(F)cc1)C(Nc1cc([N+](=O)[O-])ccc1O)c1ccccc1` (stereo unspecified), `O=C(N/N=C\c1ccc(OC(=O)c2ccc3c(c2)OCO3)cc1)c1ccc([N+](=O)[O-])cc1` is higher in displacement: -8.5% for the first, 6.9% for the second.

First: COc1ccc(CCN2C(=O)CSC2c2ccc([N+](=O)[O-])cc2)cc1OC (stereo unspecified)
Second: COc1ccc(CCNC(=O)C(=O)Nc2ccc(Cl)c(Cl)c2)cc1OC
The displacement of the first is lower: -4.5% for the first, 5.5% for the second.

Going from `CC(/C=N\NC(=O)Cn1nnc2ccccc21)=C/c1ccc(C(C)C)cc1` to `O=C(N/N=C/C(Br)=C/c1ccccc1)C(O)(c1ccccc1)c1ccccc1`, the displacement falls from -6.7% to -18.7%.

Compared with `O=C(COc1ccc2ccccc2c1)NCCc1ccccc1`, `O=C(COc1cccc(Cl)c1)NCCc1ccccc1` is higher in displacement: -16.6% for the first, -3.2% for the second.

First: COc1cc(/C=N/n2cnnc2)ccc1OCCSc1ccc(C)cc1
Second: CCOC(=O)COc1ccc(/C=C(\C#N)c2nc3ccccc3[nH]2)cc1OC
The displacement of the first is lower: 0.6% for the first, 8.1% for the second.

Compared with `O=C(CCNc1ccc(Cc2ccncc2)cc1)c1cccc([N+](=O)[O-])c1`, `O=C(Nc1ccc(S(=O)(=O)N2CCc3ccccc32)cc1)c1cccc([N+](=O)[O-])c1` is higher in displacement: -6.2% for the first, 2.1% for the second.

Going from `Cc1ccc2c(C)nc(Nc3nc(O)c(C)c(=O)[nH]3)nc2c1` to `Cc1nc(C)c(/C(O)=C/c2nc3ccccc3[nH]c2=O)s1`, the displacement rises from 2.3% to 61.6%.

Going from `COc1ccc(S(=O)(=O)N(CC(=O)Nc2cccc(Cl)c2)Cc2ccccc2)cc1OC` to `COc1ccc(N(CC(=O)Nc2cccc(Br)c2)S(=O)(=O)c2ccc(C)cc2)c(OC)c1`, the displacement falls from 15.9% to -1.5%.

First: CCOc1ccc(-n2nc3ccc(NC(=O)/C=C/c4ccco4)cc3n2)cc1
Second: CCOc1ccc(C(=O)Nc2cccc(-c3nc4cc(C)c(C)cc4o3)c2)cc1
The displacement of the first is higher: 11.2% for the first, 9.1% for the second.

Compared with `CC(Oc1ccccc1)C(=O)Nc1cccc(C(=O)Nc2ccccc2Cl)c1` (stereo unspecified), `CC(C(=O)Nc1ccc(NC(=O)c2cccc(Cl)c2)cc1)(c1ccccc1)c1ccccc1` is lower in displacement: 2.9% for the first, -5.2% for the second.

Compared with `COc1ccccc1/C=N/NC(=O)C(=O)NCc1ccccn1`, `CCOc1ccccc1/C=N/NC(=O)c1cccc(Cl)c1` is higher in displacement: -10.6% for the first, -7.2% for the second.

Going from `CCOC(=O)C1=C(C)N=c2s/c(=C\c3ccc(-c4ccccc4C(=O)O)o3)c(=O)n2C1c1cc(OC)ccc1OC` (stereo unspecified) to `CCOC(=O)c1c(C)n(-c2ccc(OC)cc2)c2ccc(O)cc12`, the displacement rises from -1.1% to 7.9%.

First: CCOC(=O)c1c(NC(=S)Nc2ccccc2)sc(C)c1C
Second: CCOC(=O)c1c(NC(C)=O)sc(C)c1-c1ccccc1
The displacement of the first is higher: 12.2% for the first, -1.3% for the second.

Going from `CSc1nc2ccc(N3C(=O)C4CCCCC4C3=O)cc2s1` (stereo unspecified) to `COc1ccc2oc(=O)c(C(=O)NC3CCCCC3)cc2c1`, the displacement falls from 4.6% to -2.3%.

Compared with `CCCc1cc(=O)n2[nH]c(-c3cccs3)cc2n1`, `CCCN1C(=O)c2ccccc2NC1c1ccc(Cl)cc1Cl` (stereo unspecified) is lower in displacement: 12% for the first, 9.1% for the second.

Compared with `O=C(Nc1ccc(Cl)cc1)N1CCCc2ccccc21`, `CCN(CC)S(=O)(=O)c1cccc(C(=O)Nc2ccc(Cl)cc2)c1` is lower in displacement: 11.3% for the first, -12% for the second.

First: O=C(Nc1ccc(Cl)c(-c2nc3ccccc3s2)c1)c1ccc([N+](=O)[O-])o1
Second: Cc1ccc(-c2nc3ccccc3s2)cc1NC(=O)COc1ccccc1[N+](=O)[O-]
The displacement of the first is lower: -1.9% for the first, 8.4% for the second.

Compared with `COc1ccc(OCC(=O)Nc2ccc(S(=O)(=O)N3CCCCC3)cc2)cc1`, `COC(=O)c1ccc(NC(=S)NC(=O)c2ccc(OC)cc2)cc1` is higher in displacement: -6.9% for the first, 14.9% for the second.

Compared with `O=C(O)CSc1nnc(-c2ccc(Cl)cc2Cl)n1-c1ccc(Cl)cc1`, `O=C(NCc1ccco1)c1ccc(-c2ccc(Cl)cc2Cl)o1` is higher in displacement: 3.9% for the first, 5.2% for the second.

Compared with `O=S1(=O)CCC(NC(=S)N/N=C/c2ccc(Cl)c(Cl)c2)C1` (stereo unspecified), `O=C(CSc1nnc(-c2ccc(Cl)cc2Cl)o1)NC1CCCCC1` is lower in displacement: 0.4% for the first, -7% for the second.

Compared with `COc1cccc(C(=O)Nc2ccc3c(c2)OCO3)c1`, `COc1cccc(/C=N/NC(=O)CC#N)c1` is higher in displacement: -8.2% for the first, 4.8% for the second.

Going from `O=C1/C(=C\c2ccc(-c3ccc(Cl)c(Cl)c3)o2)SC(=S)N1Cc1ccco1` to `CCOc1ccccc1/C=C1/C(=O)NC(=O)N(c2ccc(C)cc2)C1=O`, the displacement rises from -19.5% to -7.8%.

Compared with `CC1CC(Nc2ccccc2)c2ccccc2N1C(=O)c1cccc2ccccc12` (stereo unspecified), `Cc1ccccc1C(=O)N1c2c(C)cccc2C(Nc2ccccc2)CC1C` (stereo unspecified) is higher in displacement: -1.7% for the first, 11% for the second.

First: O=C(CSc1ccccn1)Nc1ccc2nc(SCC(=O)Nc3ccccc3F)sc2c1
Second: C=CCc1ccccc1OCc1nnc(NC(=O)Nc2ccccc2)s1
The displacement of the first is lower: -20.6% for the first, 1.2% for the second.

Compared with `COC(=O)c1ccc(N2C(=O)CC(SCCN)C2=O)cc1` (stereo unspecified), `COc1ccc(CNC(=O)c2ccc(C)c([N+](=O)[O-])c2)cc1` is lower in displacement: -6.8% for the first, -17.8% for the second.

Compared with `CCOC(=O)c1ccc2c(c1)C1C=CCC1C(c1ccc(Cl)cc1Cl)N2` (stereo unspecified), `O=C(Nc1ccc(F)cc1)c1sc2cc(Cl)ccc2c1Cl` is higher in displacement: -3.9% for the first, 10.4% for the second.

Compared with `COc1cc(/C=N/NC(=O)/C(=C\C=C\c2ccccc2)NC(=O)c2ccccc2)cc(OC)c1O`, `COc1cc(/C=C/C(=O)c2ccc(F)cc2)cc(OC)c1OC` is lower in displacement: -2.3% for the first, -6.9% for the second.

First: Cc1cccc(NC(=O)CCC(=O)N/N=C/c2cccs2)c1
Second: Cc1ccc(S(=O)(=O)NCCC(=O)NC(C)(C)C)cc1
The displacement of the first is higher: 4.2% for the first, -6.9% for the second.

Compared with `Cc1ccc(Cl)cc1N(Cc1ccc(C(=O)N(C(C)C)C(C)C)cc1)S(=O)(=O)c1ccccc1`, `CCN(CC)S(=O)(=O)c1ccc2c(c1)C(=Cc1ccccc1)c1cc(S(=O)(=O)N(CC)CC)ccc1-2` is higher in displacement: -2.8% for the first, 3.4% for the second.

Compared with `COc1ccc(C2=NCCNC(C(F)(F)F)=C2)cc1`, `COc1ccc(/C=N/N(C)C2=NS(=O)(=O)c3cc([N+](=O)[O-])ccc32)cc1` is higher in displacement: -4.5% for the first, 7.6% for the second.

Compared with `Cc1cc(C=C2C(=O)NC(=O)NC2=O)c(C)n1-c1ccc(N2CCOCC2)cc1`, `O=C(CCN1C(=O)c2ccccc2C1=O)N1CCN(c2ccccc2)CC1` is lower in displacement: 126% for the first, -4.2% for the second.

Going from `Cc1cc(OCC(F)(F)C(F)(F)C(F)(F)C(F)F)nc(N)n1` to `CCOc1ccc2oc(C)c(C(=O)O)c2c1`, the displacement rises from 3% to 8.8%.

First: COc1ccccc1C(=O)Nc1nc(-c2ccccc2)c(-c2ccc([N+](=O)[O-])cc2)s1
Second: CN(C)c1ccc(C(NC(=O)Cc2ccccc2)c2c(O)ccc3ccccc23)cc1 (stereo unspecified)
The displacement of the first is higher: 1.2% for the first, -2.1% for the second.

Compared with `CCOc1ccc(N(CC(N)=O)S(=O)(=O)c2ccc(SC)cc2)cc1`, `CCN(CC)c1ccc(NS(=O)(=O)c2cc(Cl)ccc2Cl)cc1` is higher in displacement: 6.4% for the first, 23% for the second.

Compared with `COc1ccccc1N/N=C(/C#N)C(N)=S`, `Oc1ccc(/C=N/Nc2nncc(-c3ccccc3)n2)c(O)c1` is lower in displacement: 7.8% for the first, -1.6% for the second.

Compared with `CC(=O)C1=C(O)C(=O)N(c2ccccn2)C1c1cccnc1` (stereo unspecified), `O=C(O)CCC(C(=O)O)n1c(O)c(C2=c3ccccc3=NC2=O)sc1=S` (stereo unspecified) is higher in displacement: -4.1% for the first, -2% for the second.

First: O=[N+]([O-])c1ccc(OCCCCCN2CCCCC2)cc1
Second: COc1cc(C(=O)NN=C2CCCCCC2)cc(OC)c1OC
The displacement of the first is higher: 11.6% for the first, 2.4% for the second.

Compared with `COc1ccc(OC)c(/C=C/C(=O)Oc2cc(C)cc(C)c2)c1`, `CC(=O)c1c(C)n(O)c2ccc(Cl)cc2c1=O` is lower in displacement: 11.8% for the first, 5.6% for the second.

First: O=C(CSc1nnnn1-c1ccccc1)CSc1nnnn1-c1ccccc1
Second: CCOc1cc(/C=C2/NC(=S)NC2=O)cc(Cl)c1OCC
The displacement of the first is higher: -5.4% for the first, -5.8% for the second.

From PubChem BioAssay AID1240 (Sanford-Burnham Center for Chemical Genomics, 2008)
